The record followed here is publication PMC4457034.

These are yes or no findings as the source states them, for the method shown. Binding seen in cells or lysates may run through a third protein. Some entries that bind do so weakly or less than the wild type. For some of these results: Tags and fused reporters may be left off the sequences shown.

Test [1] addresses T1, myc-tagged PINK1 (PTEN-induced putative kinase 1) (Drosophila) (UniProt Q0KHV6).
T1 sequence: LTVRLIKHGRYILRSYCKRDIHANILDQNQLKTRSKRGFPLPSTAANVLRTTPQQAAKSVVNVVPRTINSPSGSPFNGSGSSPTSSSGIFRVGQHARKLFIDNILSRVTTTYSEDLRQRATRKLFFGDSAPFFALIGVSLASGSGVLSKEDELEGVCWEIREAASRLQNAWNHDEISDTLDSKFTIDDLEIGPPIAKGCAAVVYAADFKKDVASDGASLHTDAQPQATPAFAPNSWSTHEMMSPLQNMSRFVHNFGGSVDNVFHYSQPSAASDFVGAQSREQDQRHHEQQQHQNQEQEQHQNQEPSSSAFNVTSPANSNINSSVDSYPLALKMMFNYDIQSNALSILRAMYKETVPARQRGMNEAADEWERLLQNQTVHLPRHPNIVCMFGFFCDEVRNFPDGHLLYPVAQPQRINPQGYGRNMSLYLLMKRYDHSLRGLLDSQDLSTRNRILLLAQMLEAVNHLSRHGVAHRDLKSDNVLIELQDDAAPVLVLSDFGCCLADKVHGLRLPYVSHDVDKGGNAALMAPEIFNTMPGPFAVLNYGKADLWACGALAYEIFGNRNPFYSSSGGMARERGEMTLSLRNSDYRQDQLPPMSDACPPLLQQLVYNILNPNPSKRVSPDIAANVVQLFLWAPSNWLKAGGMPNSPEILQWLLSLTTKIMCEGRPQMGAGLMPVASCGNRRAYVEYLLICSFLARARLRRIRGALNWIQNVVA
The test is described as follows: co-IP; S2R+ cells treated with clu RNAi, co-transfected with PINK1-myc and Park-FLAG; without CCCP.

In test [2] the target is T1, myc-tagged PINK1 (PTEN-induced putative kinase 1) (Drosophila). The test is described as follows: condition: only control RNAi (endogenous Clu present), normal culture conditions; co-IP; S2R+ cells treated with control (luciferase) RNAi, co-transfected with PINK1-myc and Park-FLAG; normal culture conditions, endogenous Clu present.
Test [3] has as its target T2, Porin, endogenous (Drosophila (endogenous in S2R+ cells and flies)) (UniProt Q94920).
T2 sequence: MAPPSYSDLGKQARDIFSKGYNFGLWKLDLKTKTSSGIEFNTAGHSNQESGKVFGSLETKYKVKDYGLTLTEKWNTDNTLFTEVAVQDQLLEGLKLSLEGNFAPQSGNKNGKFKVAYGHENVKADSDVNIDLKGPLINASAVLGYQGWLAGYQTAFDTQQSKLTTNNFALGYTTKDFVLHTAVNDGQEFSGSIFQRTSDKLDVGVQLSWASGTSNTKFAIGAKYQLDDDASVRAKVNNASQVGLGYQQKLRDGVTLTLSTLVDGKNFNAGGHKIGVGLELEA
The test is described as follows: co-IP; endogenous proteins, S2R+ extract; IP with commercial anti-TOM20 or anti-Porin antibody; rabbit and mouse IgG as controls.

In test [4] the target is T1, myc-tagged PINK1 (PTEN-induced putative kinase 1) (Drosophila). The test is described as follows: co-IP; S2R+ cells transfected with myc-tagged proteins, normal culture conditions; reciprocal IPs (anti-Clu, anti-myc); IP buffer 20 mM HEPES pH 7.4, 50 mM KCl, 0.02% Triton X-100, 1% NP-40 (sub), 1 mM EDTA, 0.5 mM EGTA, 5% glycerol; extract spun at 12,000 g; 4°C overnight; Protein AG magnetic ….

Test [5] deals with T3, myc-tagged Porin (Drosophila) (UniProt Q94920).
T3 sequence: T2 sequence
The test is described as above.

In test [6] the target is T2, Porin, endogenous (Drosophila (endogenous in S2R+ cells and flies)). The test is described as follows: co-IP; endogenous proteins, fly extract; IP with commercial anti-TOM20 or anti-Porin antibody; rabbit and mouse IgG as controls.
In test [7] the target is T4, myc-tagged Parkin (Park) (Drosophila) (UniProt Q7KTX7).
T4 sequence: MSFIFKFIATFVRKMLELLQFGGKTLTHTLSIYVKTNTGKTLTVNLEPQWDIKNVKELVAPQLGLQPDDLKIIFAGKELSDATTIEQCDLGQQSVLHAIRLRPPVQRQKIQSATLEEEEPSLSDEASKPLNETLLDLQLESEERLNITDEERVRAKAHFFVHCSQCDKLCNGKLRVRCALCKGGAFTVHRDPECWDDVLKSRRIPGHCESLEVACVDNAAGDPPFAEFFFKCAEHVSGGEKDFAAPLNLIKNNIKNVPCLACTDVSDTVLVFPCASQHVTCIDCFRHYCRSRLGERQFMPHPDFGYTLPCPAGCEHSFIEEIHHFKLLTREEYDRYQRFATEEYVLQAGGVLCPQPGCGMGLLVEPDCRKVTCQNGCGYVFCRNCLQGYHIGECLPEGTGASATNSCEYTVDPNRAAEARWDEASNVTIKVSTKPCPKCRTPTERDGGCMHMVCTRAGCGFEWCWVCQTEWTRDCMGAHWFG
The test is described as follows: condition: only normal culture conditions, without CCCP or hydrogen peroxide; co-IP; S2R+ cells transfected with myc-tagged proteins, normal culture conditions; reciprocal IPs (anti-Clu, anti-myc); IP buffer 20 mM HEPES pH 7.4, 50 mM KCl, 0.02% Triton X-100, 1% NP-40 (sub), 1 mM EDTA, 0.5 mM EGTA, 5% glycerol; extract spun at 12,000 g; 4°C overnight; Protein AG magnetic ….

Test [8] addresses T4, myc-tagged Parkin (Park) (Drosophila). The test is described as follows: co-IP; S2R+ cells transfected with myc-tagged Park and stressed with CCCP (10 µM, added after 36 h of transfection) or hydrogen peroxide.
Test [9] deals with T1, myc-tagged PINK1 (PTEN-induced putative kinase 1) (Drosophila). The test is described as follows: co-IP; S2R+ extract, 1% Triton X-100 added to the IP buffer, extract spun at 135,000 g for 30 min (high-speed centrifugation co-IP).
In test [10] the target is T3, myc-tagged Porin (Drosophila). The description is as above.

B1: FLAG-tagged Parkin (Park) (protein, UniProt Q7KTX7 1-482)
chain: T4 sequence
For the molecule B1, the results for the binding entry in test [1] and in [2] were “binds” and “no binding”, respectively.

B2: Clueless (Clu), endogenous (protein, UniProt A1ZAB5 1-1448)
chain: MALETEAKNSNATATGDATATATKASGKAKENNNTAGGKKNLNPNSNQQNSNQNLVNGNGTAADGPAAKKKGKKNRNKSPTEPTTEAVLSNGHAEKPTVVDAVEDNADTNANVEKPQEGGAPDAEADGDDIDLDALQDIGITVNISSPGADLLCVQLSSMELVQEIHQLLMDREETCHRTCFSLQLDNVTLDNFAELKSINNLEQGSTIKVVEEPYTMREARIHVRHVRDLLKNLDPADAYNGIDCTSLTYLNTITQGDLLDKKRTRPDSVDCTPPEYVTPGVSDPPILPLHPNVKNAKGPQALKVLTTSAWNPPPGPRKLHGDLMYLYVVTMEDKRFHISACSKGFFINQSTDDTFNPKPDNPSHLSHSLIDLLSHISPSFRRAFQTIQKRRTMRHAFERVATPYQVYQWAAPILEHTVDAIRAEDAFSSKLGYEEHIPGQTRDWNEELQTTRELPRKTLPERLLRERAIFKVHGDFVTAATRGAMAVIDGNVLAINPGEDTKMQMFIWNNIFFSMGFDVRDHYKELGGDAAAFVAPRYDLHGVRVYNAVDIEGLYTLGTVVVDYRGYRVTAQSIIPGILEREQEQSVVYGSIDFGKTVLSHPKYLELLRQAGKHLKILPHVVLNERDEPVELCSSVECKGIIGNDGRHYILDLLRTFPPDVNFLKLQDVQLSKELVDMGFPIEHRHKLCCLRQELLEAFIEDRHVNFIRIAAARLQQLTTIKQSEKSEANPVPALEGAEAASKVNGAEKPDDKEKKNEEEEKKERSTSGEARAAAIVNAIREAQSNVATSNEVQAAEVVKRACAAVGSLKEKEFDFRFNPDVFSPGIRHADGEEGTSLAKQKVLVQEAAEFLVLKQIPAFIKEHMSHSSSPIDGQSLTESLHSHGINVRYLGKVIKILSQMPRMDYLHRIAVLELIVRATKHIYYTYMQNTEPLHLSAAISHFLNCLLTNGPVNPAVSSEEAHKKRGNGGKHNKHKSSKGGKGQQQQQTTGNQNGSSSGSSNSSSASDWTLMTPRSLWQQIRKEAKVYWDWELDCDSIETAVSKYGILRISLMRAFCLKVGIQVLLREYNFESKHKPTFGDDDIVNVFPIVKHISPRATDAYNFYTTGQAKIQQGLFKEGYELISGALNLLNNVFGALHQENGSCLRMLARLSYLLGDAQDALAIQQRAVIMSERVNGMDHPSTILEYTHLSLYSFANGHVGMSLKLLYRARYLMVLICGEDHPEVALIDSNISLILHALGEYELSLRFIEHALKLNLKYFGDKDMHVALSYHLMARTQSCMGDFRSALNNEKETYSFYKSQLGENHEKTRDSAECLRLLTQQAVLLQRKMNDIYSSGKLTSDLPPIHITPPSMGSVLDMLNTINGILFVKISRKDIVKVRSEIEKHFKTDSTENEVNDAINSIVAAANNNGEAEDAVSKDIKEQPEAGKQLTNGDKAAATEATSS
Consider B2, for which the binding entry was “binds” in test [3]; “binds” in [4]; “binds” in [5]; “binds” in test [6]; “no binding” in [7]; “binds” in test [8]. The binding result in test [9] and in [10] was “binds” each time.
